# PubChem BioAssay AID686978 (National Center for Advancing Translational Sciences (NCATS), 2013)
# Hit rate of the full screen: of about 420,000 compounds, about 64,000 (15%) were called active. The shares of active, inactive and inconclusive entries below differ from those in the screen. The call rests on the fitted dose curve; in most records, active means well fitted inhibition curve with a large enough effect; inconclusive means small, poorly fitted or top-dose-only effect; inactive means flat fitted curve, though single readings scatter. Potencies of inconclusive entries are left out as doubtful fits.
# Assay: qHTS for Inhibitors of human tyrosyl-DNA phosphodiesterase 1 (TDP1): qHTS in cells in absence of CPT; further: nearly all actives have a fitted effect of over 55% in size
# Conditions: DT40 Tdp1-/- hTDP1 cells, no CPT, ATP luminescence, 48 h; series mostly up to 46.2 µM
# Procedure, shortened: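 Luminescent ATP content (CellTiter-Glo) served as the growth readout. Knockout chicken DT40 cells expressing human TDP1 were exposed to compounds without camptothecin for a minimum 48 hr at 37 °C.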
# Potency means the concentration at half of the fitted maximal effect; tags describe the fitted curve by direction and shape.
row,SMILES,Potency
1,CCOC(=O)c1sc(=S)n(-c2ccccc2OC)c1N,active: 23.1 µM
2,O=C(NCCCN1CCc2ccccc2C1)C1CCN(S(=O)(=O)N2CCC3(CC2)OCCO3)CC1,inactive
3,CCN(CC)S(=O)(=O)c1ccc(S(=O)(=O)N2CCN(CCC#N)CC2)cc1,inactive
4,Cc1cccc(CCNC(=O)C2CCCN(c3cnccn3)C2)c1 (stereo unspecified),"inconclusive [inhibitor, partial curve, poor fit]"
5,CCCCC[C@H](O)C=C[C@H]1[C@H](O)CC(=O)[C@H]1CCCCCCC(=O)O,"inconclusive [inhibitor, single point]"
6,CN1CCN(c2ccc(NC(=O)c3ccc(-c4ccccc4F)o3)cc2)CC1,"inconclusive [inhibitor, single point]"
7,O=C(NCc1ccccn1)c1cccc(NS(=O)(=O)c2cccc(Cl)c2)c1,"inconclusive [inhibitor, single point]"
8,O=C1C=CC2C(c3ccc4c(c3)OCO4)CC1N2Cc1ccccc1 (stereo unspecified),active: 6.51 µM
9,COc1cccc(C2CC(=O)Nc3cc4c(cc32)OCCO4)c1OC(C)C (stereo unspecified),"inconclusive [inhibitor, single point]"
10,Cc1nc(C)c(C(=O)NCc2ccccc2Cl)o1,"inconclusive [inhibitor, single point]"
11,C[C@H](NC(=O)N1CCn2c1nc1ccccc12)C(=O)N1CCCCC1,"inconclusive [inhibitor, single point]"
12,COc1ccc(C(=O)c2ccccc2O)c(O)c1,"inconclusive [inhibitor, single point]"
13,O=C(c1ccc(C(F)(F)F)cc1)N1CCN(c2ccc(N3CCOCC3)nn2)CC1,"inconclusive [inhibitor, partial curve]"
14,O=C(CN1CCCC1)Nc1ccc(OCc2ccccc2)cc1,"inconclusive [inhibitor, partial curve]"
15,CC(C)NC(=S)N/N=C/c1ccc(N2CCOCC2)cc1,"inconclusive [inhibitor, single point]"
16,CC1CC(C)CN(c2ncnc3c2cnn3Cc2ccc(Cl)cc2)C1 (stereo unspecified),"inconclusive [inhibitor, single point]"
17,CCc1cc(=O)oc2c3c(cc(OCC(=O)NCc4ccco4)c12)OC(C)(C)CC3,"inconclusive [inhibitor, single point]"
18,COc1ccc(NC(=O)c2cnn3c(C(F)(F)F)cc(-c4ccco4)nc23)cc1OC,"inconclusive [inhibitor, full curve]"
19,N[C@@H](Cc1ccccc1)c1nnc(SC/C=C/c2ccccc2)o1,"inconclusive [inhibitor, single point]"
20,CN1CCc2c(sc(N)c2C(=O)c2ccc(Cl)cc2)C1,"inconclusive [inhibitor, single point]"
21,CCOc1ccc(C(=O)COC(=O)Cn2cnc3c2c(=O)n(C)c(=O)n3C)cc1,inactive
22,Nc1nc(=O)n(C2OC(CO)C(O)C2O)cc1Cl (stereo unspecified),active: 5.17 µM
23,O=C(N/N=C/c1ccco1)c1cc(-c2ccccc2)nc2ccccc12,active: 4.11 µM

row,SMILES,Potency
1,Cc1c(C(=O)N2CCN(c3ccc(C(F)(F)F)cn3)CC2)oc2ccccc12,active: 18.4 µM
2,CCCCNc1nc2c(S(=O)(=O)c3ccc(Br)cc3)nnn2c2ccsc12,inactive
3,Cc1ccccc1-c1nc(S(=O)(=O)c2ccccc2)c(NCCCN2CCOCC2)o1,"inconclusive [inhibitor, single point]"
4,CCN(Cc1ccccc1)C(=O)Cn1c(=O)n(CC(=O)N2CCCCC2)c(=O)c2sccc21,inactive
5,COc1ccc(C(CNC(=O)c2cccnc2SC)N2CCOCC2)cc1 (stereo unspecified),inactive
6,Cc1ccc(Nc2c(-c3ccccn3)nc3ccc(Br)cn23)cc1,active: 20.6 µM
7,CCc1cc(=O)oc2c(CN3CCN(C)CC3)c(O)ccc12,inactive
8,COc1ccc(NC(=O)N2CC3(CCN(S(=O)(=O)c4ccccc4)CC3)C2)cc1,"inconclusive [inhibitor, single point]"
9,COc1ccc(C(=O)NCC(c2cccnc2)N2CCN(c3ccccc3)CC2)cc1OC (stereo unspecified),inactive
10,Cc1noc(NC(=O)c2ccc(Cl)c(Cl)c2)c1Cl,"inconclusive [inhibitor, partial curve, poor fit]"
11,O=C(CCN=C1NS(=O)(=O)c2ccccc21)OCC(=O)c1ccccc1Cl,inactive
12,O=C1NC(NS(=O)(=O)c2ccccc2)(C(F)(F)F)C(=O)N1Cc1ccccc1 (stereo unspecified),inactive
13,CC(C)(C)[C@H]1C=C(C(=O)NC2CC2)O[C@@H](OCc2ccc(CO)cc2)C1,"inconclusive [inhibitor, single point]"
14,CCCCNC(=O)CCC(=O)NNc1nc2ccccc2c2nc(C)nn12,"inconclusive [inhibitor, single point]"
15,CC(CCc1ccccc1)NC(=O)CSc1n[nH]c(-c2ccccc2)n1 (stereo unspecified),active: 20.6 µM
16,CC(C(=O)NC1CCCC1)n1c(-c2ccccn2)nc2ccccc21 (stereo unspecified),"inconclusive [inhibitor, single point]"
17,CCOc1ccc(NC(=O)CN(C)C(=O)/C=C/c2ccc(S(=O)(=O)N3CCCCCC3)cc2)cc1OCC,"inconclusive [inhibitor, partial curve]"
18,Cc1ccc2ccc3cc(C(=O)N4CCN(c5ccccc5F)CC4)nc3c2[nH]1,active: 16.4 µM
19,Cc1cccc(CCNC(=O)c2cccc(NC3=NC4CS(=O)(=O)CC4S3)c2)c1 (stereo unspecified),inactive
20,CC(C)(C)NCC(O)COc1cccc2c1C[C@H](O)[C@H](O)C2 (stereo partly specified),inactive
21,COc1ccccc1NC(=O)c1c(-c2ccc(C)cc2)nnc2ccccc12,"inconclusive [inhibitor, single point]"
22,CC(C)C1CC(=O)NC(SCC(=O)Nc2ccc(Br)cc2)=C1C#N (stereo unspecified),"inconclusive [inhibitor, single point]"
23,Cc1nn(C(C)C(=O)NCc2ccc(OC(C)C)cc2)c(=O)c2c1sc1ccccc12 (stereo unspecified),"inconclusive [inhibitor, single point]"
